Experimental data as given in the supplement of paper PMC11417369.
± gives the standard deviation of the averaged measurements. Some of the results follow.

These sequences were tested on PfAP2-LT AP2 domain (GST-tagged) (assay: gcPBM binding intensity (ln(normalized median fluorescence intensity)); higher = stronger DNA binding).
How it was run: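 GST-fused DNA-binding domains of P. falciparum, expressed in E. coli, were applied at about 25 μg on average for 1 h to an Agilent 4 × 180k array of primer-extended double-stranded 36-bp intergenic genomic probes and negative controls. Binding intensity is the highest Masliner-normalised natural-log median intensity across replicate spots of either probe orientation, measured with Alexa488 anti-GST antibody and a 488 nm scan.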

Row | Sequence | gcPBM binding intensity (ln)
1 | CAAAAAAAATAAAACACACACACAAAAAAATAAAAA [CACACA_site466] | 9.84 ± 0.31
2 | GTAAATATATAAACATGTACATATATAAATATATAA [XGTACX_site7262] | 8.95 ± 0.4
3 | TGGCAAAATAGGCACACACACATATACCTATAGATT [CACACA_site7168] | 9.66 ± 0.5
4 | GATAATTTTTTTCTCACACACAAATATTTTAATCAT [CACACA_site3666] | 9.01 ± 0.49
5 | AAATATATTATATCATATATTAAAGCATATATTAAA [CACACA_negctrl_site1624] | 8.43 ± 0.42
6 | TTCTTTTTATTTATATTTTCCCCTCTCTATAGCTAT [XGTACX_negctrl_site102] | 8.71 ± 0.7
7 | CAAAATAATAATAAAAGTACTAACATATTTATGAAA [XGTACX_site6078] | 8.68 ± 0.52
8 | ATAATTCAAAAAAACACACAAATTACAAAATAAACT [CACACA_site6264] | 9.02 ± 0.36
9 | AAAATATATACACAAACATGCATATAATAAATAAAT [TGCATGCA_site711] | 8.99 ± 0.35
10 | ATATTTCTGTGTGGATGTACATTATTAGCAGGCTTT [XGTACX_site6496] | 8.97 ± 0.41
11 | CATTATGTCGTAAATACACACATACCTATACATACA [CACACA_site6763] | 9.11 ± 0.32
12 | TATACACATATATAAACACACAAAAAAAAAAAAAAA [CACACA_site7041] | 8.88 ± 0.49
13 | CCATAAGATATATGTAGTACATATTATATATATATA [XGTACX_site2104] | 8.96 ± 0.33
14 | AATATATAGCTAAAAACACACAAATATATACGCATA [CACACA_site3608] | 9.12 ± 0.39
15 | CTTAAAAAAACCTTAACACACATAAACTCTAATTTA [CACACA_site7430] | 8.66 ± 0.4
16 | GTTTACATTAAAAATTGTACTCTGTATGAATAATAT [XGTACX_site80] | 8.6 ± 0.49
17 | ATTTCATTTTATAAGTGTACAATAAAAAAAAAAAAA [XGTACX_site8677] | 8.36 ± 0.42
18 | AAATTTGATATAAAAAGTACAAAATGTTCCTCAGCT [XGTACX_site809] | 8.78 ± 0.28
19 | GATGATACAAAGTAATGTACATAAATACACATATTG [XGTACX_site3177] | 9.03 ± 0.44
20 | ATATAAACAGAAAATAGTACTTTATATTGAAAAAAA [XGTACX_site7183] | 8.53 ± 0.62
21 | CTCTTCTATATATAAGCATGCATTCATAATAATTTA [TGCATGCA_site679] | 8.62 ± 0.4
22 | TAGATACTTGTCATGGGTACATATCGTACCTTTTGG [XGTACX_site6781] | 8.78 ± 0.4

Row | Sequence | gcPBM binding intensity (ln)
23 | TTTATATGATATATTACACACAAAAAAAAAAAAAAA [CACACA_site3549] | 8.72 ± 0.38
24 | GCTTAATGTCATATATCACACATGAAAATATATATA [CACACA_site5089] | 8.81 ± 0.38
25 | TAAATATATTAATACACACACGATATGTACAAAAAA [CACACA_site540] | 9.26 ± 0.38
26 | TTTTGATTTCCTATTGCACACTTTTTTTAAGTTTAT [CACACA_site1056] | 8.98 ± 0.47
27 | TGCATATACGCAAGCACACATATATATATATATATA [CACACA_site1069] | 10.1 ± 0.4
28 | TATATATATATATAATGTACATATAATATATTTATT [XGTACX_site7892] | 8.78 ± 0.27
29 | ACAGCTACCAGATACTGTACTTTTCTCCAGACTGCA [XGTACX_site2541] | 8.85 ± 0.51
30 | AATTTATAATTATAGAGTACATATTTTTAATATATA [XGTACX_site2566] | 8.31 ± 0.48
31 | GTAATAATTTTTTGTAGTACACAAAAATTCATATTT [XGTACX_site2699] | 8.64 ± 0.39
32 | ATATACACTTAATTTTTTATAAAAAAAAATTTATAT [CACACA_negctrl_site498] | 8.38 ± 0.45
33 | ATATACATAATCTTCTTGCACTTTTTTTTTTTTTTT [GTGCAC_site9410] | 8.79 ± 0.52
34 | TATATTTTGTTCTTTCCACACACAAATACATATATT [CACACA_site9348] | 9.25 ± 0.45
35 | ATGTGATATAAGTACACACACATATGTATTTATAAC [CACACA_site6942] | 9.57 ± 0.35
36 | ATTAATTTTAATAAAGGTACACGTAGTTTTTTATTA [XGTACX_site7868] | 8.34 ± 0.32
37 | TTAAAATTAAAAATGCGTACACATATACATAAAAAA [XGTACX_site1915] | 8.78 ± 0.52
38 | TATATATATATATATTGTACTGAACGTTTTTTTTTG [XGTACX_site8060] | 9.43 ± 0.2
39 | AACAAAACCTTATATGTACACACATATACATCACAC [CACACA_site9037] | 9.34 ± 0.33
40 | TATATAATATATATATGTACATATATATATGTTTTT [XGTACX_site3347] | 8.76 ± 0.42
41 | TATACATAAAACAGTTCACACATTGTATGAATATAT [CACACA_site4751] | 9.05 ± 0.43
42 | TACAAACACCCATATACACACAAAAAAAAAATAAAA [CACACA_site5421] | 9.24 ± 0.49
43 | AGAAAAACTTATATGATACACACGATAAACAAAATA [CACACA_site1038] | 8.96 ± 0.46
44 | TATATCTGTTTATATTGTACACATATATATATATAT [XGTACX_site714] | 9.2 ± 0.33

Row | Sequence | gcPBM binding intensity (ln)
45 | GGCAATACATAATAATGTACATAATTATATAATATT [XGTACX_site3739] | 8.92 ± 0.38
46 | TTGTTTCTTTTTTTTTGTACATATATATTGTATATT [XGTACX_site7602] | 9.09 ± 0.36
47 | AATTTTTCAAATTAATGTACTTGTTATAAATTGTAA [XGTACX_site5428] | 8.34 ± 0.42
48 | GGACAACAAACAAACACACACAAAAAAAAAATAAAA [CACACA_site3791] | 9.6 ± 0.71
49 | TACGTATTTTAATATTTACACACTTATTTTTTATAT [CACACA_site7924] | 8.97 ± 0.46
50 | TAGAACAAATAAAACACACACATATAAATATAGATG [CACACA_site7325] | 9.42 ± 0.42
51 | GATATTATGTGTTTGGTATTTTTTGATGTTGGTAGG [XGTACX_negctrl_site563] | 9.13 ± 0.44
52 | TCTTTCTAAAGATGTAGTACAAAATAAATATAATAT [XGTACX_site6564] | 8.58 ± 0.42
53 | AAGGCAAACAAACACACACACATATATACATATATA [CACACA_site2122] | 9.87 ± 0.36
54 | TTTATACAAACAACTTTATATTAATGTTTAACGGAG [GTGCAC_negctrl_site396] | 8.35 ± 0.38
55 | TTATCACACCTTTTTTGTACGAAATAAAAAAAAAAA [XGTACX_site5564] | 8.18 ± 0.27
56 | TAATATGCTCATGTAACACACATTTGCATATTTTTC [CACACA_site1357] | 9.09 ± 0.35
57 | GTGCAAAATATTTTTACACACAAATTCTTACAACAG [CACACA_site7556] | 9.03 ± 0.43
58 | ATATCTATGTTTATCTCGAATAACTTAAAAAATTAT [CACACA_negctrl_site1131] | 8.45 ± 0.45
59 | CATACAGACATACATACACACATACATACAGACATA [CACACA_site6996] | 9.56 ± 0.35
60 | TGTAAATATATATATACACACACACCGAAGCAATAG [CACACA_site8960] | 9.73 ± 0.31
61 | TTTTTTTTTTTTTAAACATGCATATTAATATTATAT [TGCATGCA_site820] | 8.52 ± 0.42
62 | TAAAAAGGAAGACACACACACACATATATAAATATA [CACACA_site7657] | 10.2 ± 0.34
63 | GTATATCACACATTTGCATGTTGTCAATAGTTTATC [TGCATGCA_site134] | 9.16 ± 0.36
64 | TATATACACATATATAAACACACAAAAAAAAAAAAA [CACACA_site8626] | 8.89 ± 0.4
65 | ATACAAATTGTTTAAAGTACAAATTACACCTCTTAA [XGTACX_site6888] | 8.62 ± 0.44
66 | GTATTACAACGACACACACACCTATATATCATAGTA [CACACA_site7877] | 9.66 ± 0.34

Row | Sequence | gcPBM binding intensity (ln)
67 | ACATTAAAAAAAAAATGTACATAAATATTTTTCCTT [XGTACX_site4361] | 8.48 ± 0.46
68 | AATTTTATTCATTGAGCACACAAAATAAATTATCAA [CACACA_site9079] | 8.62 ± 0.39
69 | ATCTTTTATATAAAATGTACAGAGTTTGAAAGAATA [XGTACX_site8826] | 8.39 ± 0.42
70 | TATCATTAATTTACATGTACATAAATGAATGTTTAT [XGTACX_site5608] | 8.72 ± 0.44
71 | TTCGTAATTTATATCACACACATATATCTATAATAA [CACACA_site7458] | 9 ± 0.3
72 | TTAAAAATATTATGTACACACATTTGAGATATTTGT [CACACA_site6953] | 8.97 ± 0.35
73 | TTTTTTGTTATTAAAAGTACATTATATGCTAGTTAA [XGTACX_site8747] | 8.3 ± 0.34
74 | TGAAATAAAATTTATACACACTTGCTAAATGATCAT [CACACA_site4265] | 8.74 ± 0.42
75 | ATTATATACATATATGCACACAAAAAAATATATATT [CACACA_site8508] | 9.09 ± 0.31
76 | AAAGGCTATCTTATATACTCCTAAAACGCGAACGTA [CACACA_negctrl_site396] | 8.53 ± 0.43
77 | ATAAATTCTATGTATACACACATATAAAATATAGAT [CACACA_site7296] | 8.96 ± 0.46
78 | AATATATAAATATTGTGTACTTATTTTTTTATATGT [XGTACX_site4377] | 8.77 ± 0.47
79 | AACAATTTATATAAAGCACACATGGGAAGGAAATAC [CACACA_site1712] | 9.25 ± 0.41
80 | TACAATTTAATATATACACACAAATAAATTATGCTT [CACACA_site856] | 8.71 ± 0.4
81 | ATATGTATGAAGTGTACACATATATTGTATTTTCTT [CACACA_site5503] | 9.05 ± 0.42
82 | GTAAGCACACATAGTTGTACATTAATAAAAATAAAT [XGTACX_site5876] | 9.12 ± 0.51
83 | TTCCTATAAAAAAACACACACATATAAATATATATA [CACACA_site2318] | 9.07 ± 0.35
84 | AAAAAAAACGAACACACACACATTCAATATAAAACA [CACACA_site6170] | 9.76 ± 0.3
85 | CAATGGTCATTTAGTTGTACTTAATTTTAAATCAAA [XGTACX_site4075] | 8.38 ± 0.35
86 | ATATATGACAAATGTAGTACAAATTATTGTATCATA [XGTACX_site3675] | 9.01 ± 0.48
87 | TTATTGCATATTTACACACGTACTAATTTAAACAAG [CACACA_site971] | 8.91 ± 0.49
88 | AGAATATTTAAAAAAGGTACACAAAAACCAAAATAA [XGTACX_site8569] | 8.88 ± 0.46
